Reference: PubChem BioAssay AID1466 (National Center for Advancing Translational Sciences (NCATS), 2008)
In all, about 200,000 compounds went through this assay and about 10 (0.005%) were called active. This list was built around the results that the source calls inconclusive (neither active nor inactive); the mix of calls is not that of the screen. Calls come from the whole dose curve; as a rule, active = well fitted inhibition curve with a large enough effect; inconclusive = small, poorly fitted or top-dose-only effect, or effect the other way, or another doubt; inactive = no such curve, though single readings can be large or run the other way. Potencies of inconclusive entries are doubtful fits and often do not repeat.

What follows are compounds tested against Lysosomal alpha-glucosidase (Homo sapiens) (UniProt P10253) (assay: qHTS Assay for Inhibitors of Human alpha-Glucosidase as a Potential Chaperone Treatment of Pompe Disease). Conditions: purified human GAA, 4-MU-alpha-glucoside fluorescence; activity change, negative = inhibition: at 76.9 µM (top of the series) unless noted.
Method in brief: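 qHTS format, compound range up to 77 uM. Human lysosomal enzyme at 4 nM, 400 uM 4-MU glucoside substrate, pH 5.0, 20 min room temperature; fluorescence after alkaline stop gives activity normalized to controls.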
Potency is the fitted concentration of half-maximal effect; tags give direction and shape of the fitted curve.
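Throughout, for activity change, negative = inhibition: plate controls were uninhibited enzyme wells for no effect and no-enzyme background for full effect.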

Activity change, negative = inhibition, inconclusive:
N#Cc1ccc(NC(=S)Nc2ccccc2)cc1 16.6% [activator], O=C(c1ccco1)N1N=C(c2ccc3nccnc3c2)CC1c1ccccc1 (stereo not given) -15.8% [inhibitor], Cc1nc(Nc2nc3ccccc3o2)nc(C)c1C(=O)Nc1ccc(F)cc1 15.1% [activator], O=C(CS(=O)(=O)c1ccccc1)NC1CCCCC1 18% [activator], O=C(CC1CCCCC1)NCc1ccco1 24.1% [activator], CCN(CC)S(=O)(=O)c1ccc2c(c1)nc(CCC(=O)O)n2CC 18.3% [activator], CNC(=S)Nc1cc(OC)c(NC(=O)c2ccco2)cc1OC 16.2% [activator], COC(=O)CCn1nc(-c2ccc(Cl)cc2)c2ccccc2c1=O 16% [activator], O=C1CN(C(=O)c2cc3ccccc3oc2=O)C(c2ccc(F)cc2)c2cc(Br)ccc2N1 (stereo not given) -17.9% [inhibitor], O=S(=O)(NC1CC2CCC1C2)c1ccc(Br)s1 (stereo not given) -15.5% [inhibitor], CCOc1ccc(C(=O)CN2CCN(S(=O)(=O)c3ccc(OC)cc3)CC2)cc1 -15.7% [inhibitor], CCOc1ccc(N(Cc2cc3cc(OC)ccc3[nH]c2=O)C(=O)C2CCCO2)cc1 (stereo not given) 15.7% [activator], Cc1c(Cl)c(C(=O)NNC(=S)Nc2ccc(F)cc2)nn1C 15% [activator], COc1ccc(CCNC(=O)CN(c2cccc([N+](=O)[O-])c2)S(C)(=O)=O)cc1OC 12.9% [activator], CC1(CC(=O)N/N=C/c2ccc(OCc3ccc(Cl)cc3Cl)cc2)OCCCO1 -16.5% [inhibitor], CC1(C)Cc2ccccc2C(/C(=N\Nc2cccc(Cl)c2)C(N)=O)=N1 -19.1% [inhibitor]

Potency, inactive:
Cc1cc(C)c2c(-n3cccc3)c(C(=O)NNS(=O)(=O)c3ccc(Br)cc3)sc2n1, O=C(Nc1cccc2nsnc12)c1ccc(-c2cccc(Cl)c2)o1, Cc1ccc(-c2nc3ncccn3c2NC2CCCCC2)o1, CN1C(=O)/C(=C/C=C2\SCCN2C)SC1=S, O=C(c1ccc(Cl)cc1)c1ccc(CN2C(=O)c3ccccc3C2=O)o1

Potency, inconclusive:
N#CC(C#N)=CNc1cccnc1 56.2 µM [inhibitor, single point], O=C(N/N=C/C(Cl)=C/c1ccc([N+](=O)[O-])cc1)C(=O)Nc1ccc(C(=O)O)cc1 1.41 µM [inhibitor, full curve, poor fit], CCOC(=O)c1cc2c(=O)n3cccc(C)c3nc2n(Cc2ccccc2Cl)c1=N 22.4 µM [activator, single point], Nn1c(SCC(=O)N2CCN(S(=O)(=O)c3ccccc3)CC2)nnc1-c1cccs1 22.4 µM [inhibitor, partial curve], Cc1c(C(=O)O)oc2c1C(O)CCC2 (stereo not given) 11.2 µM [inhibitor, single point], COc1cc(/C=N/Nc2nc3ccccc3s2)ccc1OC(=O)c1ccccc1F 39.8 µM [inhibitor, partial curve], O=C(O)COc1ccccc1/C=C1\SC(=S)N(/N=C/c2ccccc2O)C1=O 56.2 µM [inhibitor, single point], CC(=O)N1CCC(=NNc2ccnc3cc(Cl)ccc23)CC1 50.1 µM [inhibitor, single point], O=C1c2ccccc2NC2CCCCCN12 (stereo not given) 28.2 µM [activator, single point], N#CC1=C(N)OC2=C(CC/C2=C\c2ccc(F)cc2)C1c1ccc(F)cc1 (stereo not given) 50.1 µM [inhibitor, single point], Cc1ccc(C(=O)NC(C)C(c2cccs2)N2CCCC2)s1 (stereo not given) 0.631 µM [inhibitor, single point], CCc1cccc(C)c1NC(=O)COC(=O)CNS(=O)(=O)/C=C/c1ccccc1 12.6 µM [inhibitor, partial curve, poor fit], CCOC(=O)COc1ccc2c(C)cc(=O)oc2c1C(=O)c1ccccc1 3.16 µM [activator, partial curve, poor fit], Cc1ccc(S(=O)(=O)N2CCN(C(=O)COC(=O)COc3ccccc3)CC2)cc1 56.2 µM [inhibitor, single point], CN(Cc1ccccc1)C(=O)CCCn1c(=O)[nH]c2cc(Cl)ccc2c1=O 56.2 µM [inhibitor, single point], Cc1cccc(OCC(O)Cn2c(=N)n(Cc3ccccc3)c3ccccc32)c1 (stereo not given) 44.7 µM [inhibitor, partial curve], COc1ccccc1S(=O)(=O)Cc1ccc(C(=O)N2CCN(c3cccc(Cl)c3)CC2)o1 28.2 µM [inhibitor, single point], CS(=O)(=O)N(CC(=O)Nc1cccc(Cl)c1)c1ccccc1Cl 31.6 µM [inhibitor, partial curve], c1ccc(CCc2nn3c(C4COc5ccccc5O4)nnc3s2)cc1 (stereo not given) 5.62 µM [inhibitor, single point], c1ccc(Nc2cccc3c(Nc4ccccc4)cccc23)cc1 28.2 µM [activator, partial curve], CCOC(=O)c1c(NC(=O)/C=C/c2ccco2)sc(C)c1C 2 µM [activator, partial curve], COc1cc(NC(=O)Cn2ncc3c2-c2ccccc2OC3)cc(OC)c1OC 44.7 µM [inhibitor, single point], O=C1N=C(N2CCCCC2)S/C1=C/C1=Cc2ccccc2OC1 50.1 µM [inhibitor, single point], COC(=O)C1=CN(Cc2cccs2)C=C(C(=O)OC)C1c1ccc(OC)cc1OC 35.5 µM [activator, partial curve], CCN(CC)Cc1c(O)ccc2c(C)c(CC(=O)OC)c(=O)oc12 35.5 µM [activator, partial curve], CC1(C)Cc2c(C#N)c(NCC3CCCO3)nc(-c3ccco3)c2CO1 (stereo not given) 28.2 µM [activator, partial curve], Cn1cccc1C(=O)OCc1cc(Cl)cc2c1OCOC2 50.1 µM [inhibitor, single point], O=C(NCC1CCCO1)C1CCN(C2CCN(CCCC3CCCC3)CC2)CC1 (stereo not given) 2.51 µM [activator, full curve, poor fit], O=C(NC(Cc1c[nH]c2ccccc12)C(=O)N/N=C/c1cccnc1)c1cccs1 (stereo not given) 2.82 µM [activator, partial curve, poor fit], CC(C)CNS(=O)(=O)c1ccc(CCC(=O)N2CCN(c3ccccc3)CC2)cc1 7.94 µM [inhibitor, single point], CCOC(=O)N1CCN(Cc2c(O)ccc3ccccc23)CC1 50.1 µM [activator, single point], COc1ccccc1-c1nc(N)n[nH]1 3.98 µM [inhibitor, single point], Cn1c(=O)c(-c2ccccc2)nc2ccccc21 22.4 µM [activator, single point], COc1cccc(-c2nc(NCCN3CCOCC3)c3ccccc3n2)c1O 50.1 µM [inhibitor, single point], Cc1ccc(-c2cc(C(=O)N/N=C/c3c(C)nn(C)c3C)c3ccccc3n2)c(C)c1 0.794 µM [inhibitor, full curve, poor fit], Cc1cc(-n2nc(C)cc2C)n2ncc(-c3ccccc3)c2n1 1.12 µM [inhibitor, full curve, poor fit], COC(=O)Nc1ccc(S(=O)(=O)N2CCN(CCN3C(=O)C4C5C=CC(C5)C4C3=O)CC2)cc1 (stereo not given) 35.5 µM [inhibitor, single point], COc1ccc(NC(=O)CN(C)S(=O)(=O)c2ccccc2)cc1 11.2 µM [inhibitor, single point], C=CCSc1nc2ccccc2c2nc(-c3ccccc3)nn12 50.1 µM [inhibitor, single point], Cc1ccc2nc(SC(C(=O)Nc3ccc(F)cc3)c3ccccc3)[nH]c2c1 (stereo not given) 3.55 µM [inhibitor, partial curve], O=S1(=O)C=C(Sc2nc3ccccc3s2)c2ccccc21 5.62 µM [inhibitor, full curve], COc1cc(/C=C/C(=O)OCC(=O)N2CCOCC2)ccc1OCC#N 39.8 µM [inhibitor, single point], CC(=O)C1C(c2cccc(Oc3ccccc3)c2)NC(=O)NC1(O)C(F)(F)F (stereo not given) 11.2 µM [inhibitor, single point], COc1ccc(S(=O)(=O)N2CCC(n3cnc4cc(C(F)(F)F)ccc43)CC2)cc1 35.5 µM [inhibitor, partial curve]
